Data reported in PubChem BioAssay AID504332 (National Center for Advancing Translational Sciences (NCATS), 2011).
Out of some 350,000 compounds screened, about 31,000 (8.9%) were called active. This list was built around the results that the source calls inconclusive (neither active nor inactive); the mix of calls is not that of the screen. Calls come from the whole dose curve; as a rule, active = well fitted inhibition curve with a large enough effect; inconclusive = small, poorly fitted or top-dose-only effect; inactive = no such curve, though single readings can be large or run the other way. Potencies of inconclusive entries are doubtful fits and often do not repeat. The source holds several records for some structures; these can differ, active in one and inactive in another.

The compounds below were run against Histone-lysine N-methyltransferase EHMT2 (Homo sapiens) (UniProt Q96KQ7) (assay: qHTS Assay for Inhibitors of Histone Lysine Methyltransferase G9a). Conditions: G9a H3K9 monomethylation, AlphaScreen, 2 h; activity, negative = inhibition: at 59 µM (top of the series) unless noted.
UniProt Q96KQ7, sequence (Q96KQ7 whole entry, looked up): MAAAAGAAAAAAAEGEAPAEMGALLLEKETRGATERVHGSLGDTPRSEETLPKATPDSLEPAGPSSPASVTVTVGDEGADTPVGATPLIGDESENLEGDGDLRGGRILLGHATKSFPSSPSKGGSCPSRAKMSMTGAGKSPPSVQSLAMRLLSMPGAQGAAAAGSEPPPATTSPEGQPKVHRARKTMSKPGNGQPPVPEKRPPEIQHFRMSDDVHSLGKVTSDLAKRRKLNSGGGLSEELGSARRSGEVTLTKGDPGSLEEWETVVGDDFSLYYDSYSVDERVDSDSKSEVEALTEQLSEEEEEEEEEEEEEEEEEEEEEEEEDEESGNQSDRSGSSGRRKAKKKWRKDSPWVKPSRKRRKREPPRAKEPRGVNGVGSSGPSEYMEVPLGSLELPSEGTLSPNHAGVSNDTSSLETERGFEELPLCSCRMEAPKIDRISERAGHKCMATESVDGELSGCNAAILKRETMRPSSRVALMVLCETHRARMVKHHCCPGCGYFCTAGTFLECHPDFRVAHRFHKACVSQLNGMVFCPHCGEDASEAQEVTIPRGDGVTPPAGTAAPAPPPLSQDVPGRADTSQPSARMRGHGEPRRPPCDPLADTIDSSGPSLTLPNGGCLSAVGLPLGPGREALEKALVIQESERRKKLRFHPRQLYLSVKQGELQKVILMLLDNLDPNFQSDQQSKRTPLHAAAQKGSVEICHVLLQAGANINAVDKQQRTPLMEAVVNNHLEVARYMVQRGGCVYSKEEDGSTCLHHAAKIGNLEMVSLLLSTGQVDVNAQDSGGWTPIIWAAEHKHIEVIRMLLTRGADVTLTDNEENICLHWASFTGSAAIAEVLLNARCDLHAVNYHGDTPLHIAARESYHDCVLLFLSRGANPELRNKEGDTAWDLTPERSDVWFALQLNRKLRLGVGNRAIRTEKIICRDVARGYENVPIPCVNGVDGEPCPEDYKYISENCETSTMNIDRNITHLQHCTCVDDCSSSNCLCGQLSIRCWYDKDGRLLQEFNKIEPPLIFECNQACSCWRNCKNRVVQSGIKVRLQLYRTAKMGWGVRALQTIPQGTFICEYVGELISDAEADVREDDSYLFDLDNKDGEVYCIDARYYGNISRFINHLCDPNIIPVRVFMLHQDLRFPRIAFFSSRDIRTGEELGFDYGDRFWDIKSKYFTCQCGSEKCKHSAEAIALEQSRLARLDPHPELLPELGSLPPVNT
How it was run: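 Chemiluminescent proximity detection of H3K9 monomethylation, read after 10 min bead incubation in the dark. Reaction: 20 nM G9a, 500 nM biotin-H3K9 peptide, 20 uM SAM cofactor, 2 h, room temperature, following 15 min enzyme-compound preincubation.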
% is set by controls: 0 for no effect and ±100 for the full control effect; potency is the fitted concentration of half-maximal effect; tags give direction and shape of the fitted curve.
Note: nearly all actives have a fitted effect of over 75% in size.

SMILES | Potency | activity, negative = inhibition
Cc1cc(N)c2ccccc2n1 | inconclusive: 8.91 µM [inhibitor, partial curve, poor fit] | 
CC(C)N1CCN(c2ccc(S(=O)(=O)N3CCOCC3)cn2)CC1 | inconclusive: 89.1 µM [inhibitor, single point] | 
CC(=O)c1ccc(OCCOc2ccc([N+](=O)[O-])cc2)cc1 | inactive | 
CC1=C(SCCC#N)S/C(=C2\SC(C)=C(SCCC#N)S2)S1 | active: 1.26 µM | 
CCOCCCNC(=O)Nc1cc(C(=O)NCc2ccc(C(C)C)cc2)ccc1N1CCCC1 | inconclusive: 20 µM [inhibitor, single point] | 
CCN1/C(=C2\C(=O)N(c3ccccc3)N=C2C)C=Cc2cc(C)ccc21 | inconclusive: 22.4 µM [inhibitor, single point] | 
CCN(CC)c1ccc(CNc2ccc(Br)cn2)cc1 | inconclusive: 3.16 µM [inhibitor, partial curve, poor fit] | 
C=CCn1c(O)c2ccc(C(=O)N=NC(=O)COc3ccccc3F)cc2c1O | inconclusive: 63.1 µM [inhibitor, partial curve, poor fit] | 
COc1cc(OC)cc(C(=O)Nc2ccc(-c3nc4ccccc4o3)cc2)c1 | inactive | 
Cn1nnnc1SCCNCc1ccccc1OCc1ccc(Cl)cc1Cl | inactive | 
O=c1c2[nH]c3ccc(Br)cc3c2ncn1CCCn1ccnc1 |  | inconclusive: -80.4% [inhibitor]
Cc1cccc(CS(=O)(=O)c2ncc(Cl)c(C(=O)Nc3nc4ccc(F)cc4s3)n2)c1 | inactive | 
CCc1ccccc1N(CC(=O)Nc1cccnc1)S(=O)(=O)c1ccccc1 |  | inactive: 2.5% [at 12.7 µM]
NC(=O)CNC(=O)[C@@H]1CC2(CC(c3ccccc3)=NO2)CN1C(=O)c1ccc(Br)cc1 (some centres not stated) |  | inactive: 31.4% [at 12.7 µM]
CC1CC(C)CN(c2oc(Cc3ccccc3)nc2C#N)C1 (configuration not stated) | active: 11.2 µM | 
CCCCCCCCCCCCCCCC(=O)OC(CC(=O)O)C[N+](C)(C)C (configuration not stated) | active: 31.6 µM | 
CCC(=O)Nc1nnc(CSCc2ccc(F)cc2)s1 | inconclusive: 89.1 µM [inhibitor, single point] | 
Cc1ccc(CNS(=O)(=O)c2ccc(C(C)(C)C)cc2)n1C | inconclusive: 2.24 µM [inhibitor, partial curve, poor fit] | 
O=C(CCNC(=O)Cn1ccc2ccccc2c1=O)NCCN1CCc2ccccc2C1 |  | inconclusive: -55.4% [inhibitor]
O=C(CSc1nnc(NC(=O)C2CC(=O)N(c3ccccc3)C2)s1)NCc1ccco1 (configuration not stated) | inconclusive: 89.1 µM [inhibitor, single point] | 
CCOc1ccc(N(CC)S(=O)(=O)N2CCCC(C(=O)NCc3ccc(Cl)cc3)C2)cc1 (configuration not stated) | inactive | 
O=C(CSc1nc2ccccc2[nH]1)Nc1ccccc1N1CCOCC1 | inactive | 
Cc1ccc(NCC(O)C(O)C(O)CO)cc1C (configuration not stated) | inconclusive: 3.98 µM [inhibitor, single point] | 
Cc1cccc(CNC(=O)C2CCC(=O)N(C3CC3)C2)c1 (configuration not stated) | inactive | 

SMILES | Potency | activity, negative = inhibition
Cc1cc(OC(C)C(=O)Nc2ccncc2)ccc1Cl (configuration not stated) | inactive | 
CCCNc1nc2c(c(=O)[nH]c(=O)n2C)n1CCc1ccccc1 | inactive | 
Cc1nc(N)sc1-c1csc(Nc2ccccn2)n1 | inconclusive: 39.8 µM [inhibitor, single point] | 
CC(C)(C)n1nc2c(c1NC(=O)Cc1ccc(Cl)cc1)CS(=O)(=O)C2 | inactive | 
CCOc1ccc(/C=C/C(=O)OCC(=O)Nc2cccc(S(=O)(=O)N3CCCC3)c2)cc1 | inconclusive: 35.5 µM [inhibitor, single point] | 
CC(=O)N1c2ccccc2C(=O)C1N1CCCCC1 (configuration not stated) | active: 50.1 µM | 
CCn1c(SCC(=O)N2CCC(C)CC2)nnc1-c1ccccc1O | inactive | 
COc1cccc(-c2cc(C(=O)N3CCN(C(c4ccccc4)c4ccccc4)CC3)no2)c1 | inconclusive: 50.1 µM [inhibitor, partial curve] | 
O=S(=O)(Nc1cccc(-c2ccc(N3CCCCCC3)nn2)c1)c1ccccc1 | inconclusive: 12.6 µM [inhibitor, partial curve, poor fit] | 
COc1ccc2c(c1)c1c(c(=O)n(Cc3ccccc3)c(=O)n1CC(=O)Nc1c(C)cccc1C)n2C | inconclusive: 7.08 µM [inhibitor, single point] | 
CCc1ccc(C2CC(c3cccc(OC)c3)n3nc(N)nc3N2)cc1 (configuration not stated) | inconclusive: 44.7 µM [inhibitor, partial curve] | 
COc1ccc(NC(=O)CSc2nc(N)c(C#N)cc2C#N)cc1 | inconclusive: 22.4 µM [inhibitor, single point] | 
CN(C)Cc1c(C(=O)N/N=C/c2ccc(-c3ccccc3)cc2)nnn1-c1nonc1N | inactive | 
Cc1ccccc1NC(=O)CN1C(=O)S/C(=C\c2cccn2-c2cccc(C(=O)O)c2)C1=O |  | inconclusive: -84.4% [inhibitor]
CCCN1C=CC(=CC=C(C#N)C#N)C=C1 | inconclusive: 28.2 µM [inhibitor, partial curve, poor fit] | 
O=C(NCC(c1cccnc1)N1CCOCC1)C(=O)Nc1ccc(F)cc1 (configuration not stated) | inconclusive: 35.5 µM [inhibitor, partial curve, poor fit] | 
CCOC(=O)CSc1nc2sc3c(c2c(=O)n1-c1ccc(OC)cc1)CCN(C)C3 | inconclusive: 79.4 µM [inhibitor, single point] | 
O=C(C1=NN[C@@H]2C(=O)N(c3cccc(C(F)(F)F)c3)C(=O)[C@H]12)c1cnccn1 | active: 39.8 µM | 
CC1CCc2cc(F)cc3c(O)c(C(=O)NCC4CCCO4)c(=O)n1c23 (configuration not stated) | inactive | 
CCOC(=O)C(C)Sc1nc(N)c(NC(=O)c2ccc(OC)c(OC)c2)c(=O)[nH]1 (configuration not stated) | inconclusive: 39.8 µM [inhibitor, full curve] | 
O=C(O)COc1ccc(Cl)cc1CO | inconclusive: 1.58 µM [inhibitor, single point] | 
COc1ccccc1/C=C/C(=O)OC(C)CN1CCCCC1 (configuration not stated) | inconclusive: 89.1 µM [inhibitor, single point] | 
CCCOc1ccc(Nc2cc(C)nc(C)n2)cc1 | inactive | 
C#CCOC(=O)/C(=C/c1ccc(F)cc1)NC(C)=O | inactive | 

SMILES | Potency | activity, negative = inhibition
COc1ccccc1NC(=O)C1=C(C)Nc2nc3ccccc3n2C1c1cccc(Br)c1 (configuration not stated) | inconclusive: 22.4 µM [inhibitor, partial curve, poor fit] | 
COc1ccc(N2CCN(Cc3cc(=O)oc4ccc(OC)cc34)CC2)cc1 | inactive | 
COc1cc(OC)cc(C(=O)N[C@H](C(=O)Nc2nc(-c3cc(OC)ccc3OC)cs2)C(C)C)c1 | inconclusive: 39.8 µM [inhibitor, partial curve] | 
COc1ccc(C(=O)Oc2c(Sc3ccccc3)c(C)nn2-c2ccccc2)cc1OC | inconclusive: 10 µM [inhibitor, partial curve] | 
COc1cccc(NS(=O)(=O)c2ccc3c(c2)CCN3C(C)=O)c1 | inactive | 
CCCCc1nc(NCCNC(=O)c2ccco2)c(C#N)c2c1CSC(C)(C)C2 |  | inconclusive: -61.1% [inhibitor]
CCOCCCn1c(=S)[nH]c2cc(C(=O)NCCOC)ccc2c1=O | inconclusive: 39.8 µM [inhibitor, single point] | 
COc1ccc2c(CC(=O)Nc3cccc(S(=O)(=O)N4CCOCC4)c3)coc2c1 | inactive | 
COCCN1C(=O)C(=O)/C(=C(/O)c2ccc(S(=O)(=O)N3CCOCC3)cc2)C1c1ccc(C(C)C)cc1 (configuration not stated) |  | inactive: -9.52% [at 2.33 µM]
CC(=O)/C(N=Nc1cc2c(cc1[N+](=O)[O-])OCCO2)=C(\C)O | inactive | 
CCN(CC)S(=O)(=O)c1ccc(OC)c(NC(=O)CCc2c(C)noc2C)c1 | inconclusive: 1.41 µM [inhibitor, single point] | 
COc1ccc(CCNC(=O)C2CCN(c3nc4ccccc4nc3C(F)(F)F)CC2)cc1OC | inactive | 
COc1ccc(-n2nc3c(c2NC(=O)c2ccc(S(=O)(=O)N4CCOCC4)cc2)CS(=O)C3)cc1 (configuration not stated) | inconclusive: 3.55 µM [inhibitor, full curve, poor fit] | 
C/C=C(\C)C(=O)N[C@@H](C)CN1C2=NC[C@H](C(C)C)N2C[C@H]1Cc1ccc(OC)cc1 | inconclusive: 7.94 µM [inhibitor, single point] | 
Cc1csc(SCC(=O)Nc2oc(C)c3c(C)n[nH]c(=O)c23)n1 | inconclusive: 28.2 µM [inhibitor, single point] | 
CCn1c(SCC(=O)Nc2nc3c(s2)CCCC3)nnc1-c1ccccc1 | inconclusive: 79.4 µM [inhibitor, partial curve] | 
O=C(N/N=C/c1ccccc1Cl)c1nc2ccc([N+](=O)[O-])cc2c(=O)[nH]1 | inconclusive: 50.1 µM [inhibitor, partial curve, poor fit] | 
O=C1CC(Nc2ccc(N3CCOCC3)cc2)C(=O)N1C1CCCCC1 (configuration not stated) | inconclusive: 3.16 µM [inhibitor, full curve, poor fit] | 
Cc1ccc(-c2nc3c(c(=O)[nH]c(=O)n3Cc3ccccc3)n2Cc2ccccc2)o1 | active: 10 µM | 
CCOc1cc(C#N)c(NC(=O)c2cccnc2)cc1OCC | inactive | 
CCCN(CCC)CC(C)(C)NS(=O)(=O)c1ccc(Cl)cc1 |  | inconclusive: -90% [inhibitor] [at 12.7 µM]
CCn1c(SCC(=O)NC2=NCCS2)nnc1C(C)NC(=O)c1ccccc1Br (configuration not stated) | inactive | 
Cc1cccc(NNC(N)=S)c1 | active: 39.8 µM | 
Cc1ccc(NC2CCCN(C(=O)c3cn(C)c4ccccc34)C2)cc1C (configuration not stated) | inconclusive: 56.2 µM [inhibitor, single point] | 
